Out of some 320,000 compounds screened, about 9,100 (2.8%) were called active. Inconclusive means that the source gave no clear call. Such entries were picked first, then a sample of the others. Calls follow the shape of the dose curve; as a rule, active = well fitted activation curve with a large enough effect; inconclusive = small, poorly fitted or top-dose-only effect; inactive = no such curve, though single readings can be large or run the other way. No potency is given beside an inconclusive call; the fits are too rough.
Test: qHTS Assay for Rab9 Promoter Activators; also: nearly all actives have a fitted effect of over 60% in size; as to activation, negative = inhibition: % of control where 0% means no effect
Conditions: Huh7 Rab9 promoter-luciferase reporter, luminescence, 24 h; series mostly up to 9.22 µM; activation, negative = inhibition: at the top concentration
Outline: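 Luminescence from Amplite-detected luciferase (10 minutes, ambient) reports Rab9 promoter activation. Before that, stable Rab9-luciferase Huh7 cells (1500/well, reduced-serum OP-MEM I plus 10% FBS) were exposed to compound for 24 hours at 37C.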
Potency is read from the fitted curve at half-maximal effect; tags tell the direction and shape of the fitted curve.

| SMILES | Potency | activation, negative = inhibition |
| --- | --- | --- |
| C=CCn1c(C)cc(C2=NNC(=NC(C)(C)C)SC2)c1C | inconclusive [activator, full curve] | – |
| O=C(CCc1ccccc1)Nc1ccc2c(c1)OCO2 | inconclusive [activator, single point] | – |
| Cc1cccc(NC(=O)c2ccc(NCC3CCCO3)c([N+](=O)[O-])c2)n1 (stereo unspecified) | inconclusive [activator, single point] | – |
| Cc1c(C(=O)Nc2ccccc2)csc1-c1ccccc1 | active: 0.708 µM | – |
| CCOC(=O)c1nn(-c2ccc(F)cc2)cc1O | inconclusive [activator, single point] | – |
| CC(=O)c1cccc(NC(=O)CC2Oc3ccc(C)cc3NC2=O)c1 (stereo unspecified) | – | inactive: -2.99% |
| CC1CN(C(=O)c2ccc(COc3ccc(C(C)C)cc3)o2)CC(C)O1 (stereo unspecified) | inconclusive [activator, partial curve] | – |
| O=C(NC1CCCCCC1)C(=O)NC1CCCC1 | active: 2.24 µM | – |
| CC(=O)C1=C(O)C(=O)N(c2ccc(O)cc2)C1c1cccc([N+](=O)[O-])c1 (stereo unspecified) | inconclusive [activator, single point] | – |
| O=C(NCc1cccs1)C1(S(=O)(=O)c2ccccc2)CC=CC1 | – | inactive: -0.939% |
| COc1ccc(C(=O)NCCn2cc(SCC(=O)NCc3ccco3)c3ccccc32)cc1 | inconclusive [activator, partial curve] | – |
| Cc1ccsc1/C=N/Nc1nc2ccccc2[nH]1 | active: 2.51 µM | – |
| CCCCOc1ccc(CN2CCC(O)CC2)cc1 | inconclusive [activator, single point] | – |
| CCOC(=O)N1CCN(C(=O)C2CCCN(c3nc4ccc(OCC)cc4s3)C2)CC1 (stereo unspecified) | – | inactive: 4.89% |
| COc1cc(C(=O)OCC(=O)N2CCC(C)CC2)cc2c1OCCO2 | – | inactive: 0.365% |
| C=CCOc1c(CNc2ccc(C(=O)O)cc2)cccc1OCC | inconclusive [activator, single point] | – |
| Cc1cc(C)n2c(Br)c(CSc3nc4ccccc4s3)nc2n1 | inconclusive [activator, single point] | – |
| Cc1cccc(C(=O)NCCC(=O)Nc2ccc(C#N)cc2)c1 | – | inactive: 2.65% |
| O=C(Nc1ccc(S(=O)(=O)Nc2cnc3ccccc3n2)cc1)c1ccc(Cl)c([N+](=O)[O-])c1 | – | inactive: -0.922% |
| CCOC(=O)N1CCN(C(=O)CSc2nnc3[nH]c(=O)c(C)c(C)n23)CC1 | – | inactive: -3.4% |
| CC(C)CC(NC(=O)C1CCC(C)CC1)C(=O)Nc1ccccn1 (stereo unspecified) | inconclusive [activator, single point] | – |

| SMILES | Potency | activation, negative = inhibition |
| --- | --- | --- |
| CC(=O)c1sc(NC(=O)COc2ccccc2)nc1C | inconclusive [activator, partial curve] | – |
| Fc1cccc(NC(=S)N2CCN(c3ccccn3)CC2)c1 | – | inactive: -0.169% |
| Cc1nc2sc(C(=O)Nc3ccccc3)c(N)c2c(C)c1[N+](=O)[O-] | active: 4.47 µM | – |
| O=C(NCC1CCCO1)c1csc(Nc2cccc3ccccc23)n1 (stereo unspecified) | – | inactive: -28% |
| CCC(=O)Nc1sc(C(=O)Nc2ccccc2)c(C)c1C(=O)OC | active: 0.891 µM | – |
| Cc1ccc(C)c(N(CC(=O)NC2CCCCC2)C(=O)c2csnn2)c1 | inconclusive [activator, single point] | – |
| Cc1ccc(N(C(=O)Cn2nnc3ccccc32)C(C(=O)NCc2ccco2)c2ccc(C)o2)cc1 (stereo unspecified) | – | inactive: 7.51% |
| Cc1cnc(NC(=O)CC2OC(=O)c3ccccc32)s1 (stereo unspecified) | – | inactive: -3.46% |
| O=C(Nc1ccon1)c1cc2c(s1)CCCCCC2 | active: 3.55 µM | – |
| COc1ccc(N=C2NN=C(c3ccc4c(c3)OCCO4)CS2)cc1 | – | inactive: 22.9% |
| NC(=O)CSc1nc2c(sc(=S)n2-c2ccccc2)c(=O)[nH]1 | – | inactive: -1.12% |
| O=c1[nH]cnc2nn(-c3ccccc3)nc12 | inconclusive [activator, partial curve] | – |
| Cc1nc(Nc2nc3ccccc3o2)nc2c1CCC2 | inconclusive [activator, partial curve] | – |
| CN(C)c1ccc(C=Nc2ccccc2C(N)=O)cc1 | active: 0.794 µM | – |
| CCOc1ncccc1C(=O)OCC(=O)N(CC(C)C)c1c(N)n(Cc2ccccc2)c(=O)[nH]c1=O | – | inactive: -1.12% |
| O=c1c2c3c(sc2nc2n1N=C(c1cccs1)CS2)CCCC3 | active: 0.631 µM | – |
| CC(C)n1nnnc1SCC(=O)N1N=C(c2cccs2)CC1c1cccs1 (stereo unspecified) | inconclusive [activator, partial curve] | – |
| O=C(NCCc1ccc(Cl)cc1)c1n[nH]c2ccccc12 | inconclusive [activator, single point] | – |
| CCc1ccc(C(=O)COC(=O)c2cc([N+](=O)[O-])ccc2N2CCOCC2)cc1 | – | inactive: -8.7% |
| Cc1ccc(OCC(=O)Nc2ccccc2F)cc1C | inconclusive [activator, single point] | – |
| O=Cc1cccc(OC(=O)c2ccc(Cl)cc2Cl)c1 | inconclusive [activator, single point] | – |

| SMILES | Potency | activation, negative = inhibition |
| --- | --- | --- |
| C=C(C)C1CC=C(C)/C(=N/NC(=O)c2cccs2)C1 (stereo unspecified) | inconclusive [activator, single point] | – |
| COc1ccc(C)cc1NC(=O)C1COc2ccccc2O1 (stereo unspecified) | inconclusive [activator, single point] | – |
| COc1ccc(C2CC(c3ccccc3)=NN2C(=O)c2cccs2)cc1 (stereo unspecified) | inconclusive [activator, partial curve] | – |
| c1cnc2c(SCc3ccc(-c4nnco4)cc3)cccc2c1 | inconclusive [activator, partial curve] | – |
| CC(NC(=O)C12CC3CC(CC(C3)C1)C2)C(=O)N/N=C/C1=C(N2CCOCC2)C(=C\c2cccc([N+](=O)[O-])c2)/CC1 (stereo unspecified) | – | inactive: -2.61% |
| O=C(N/N=C/c1cccc([N+](=O)[O-])c1)c1ccc2c(c1)OCCO2 | active: 2.24 µM | – |
| Cc1ccc(C(=O)Nc2ccc(N3CCN(C)CC3)cc2)cc1 | active: 2.51 µM | – |
| O=C(Nc1ccc(N2CCCC2)cc1)c1cccc(Cl)c1 | active: 0.251 µM | – |
| Cc1ccc(-c2cnc3c(Cl)c(C)nn3c2)cc1 | active: 0.447 µM | – |
| O=C(Cc1ccccc1)N/N=C/C=C/c1ccccc1[N+](=O)[O-] | inconclusive [activator, partial curve] | – |
| Cc1cc(/C=C(\C#N)C(=O)NCc2ccco2)c(C)n1-c1cccnc1 | inconclusive [activator, partial curve] | – |
| CN(C(=O)Nc1ccccc1)C1CCCc2ccccc21 (stereo unspecified) | inconclusive [activator, single point] | – |
| Cc1oc(-c2ccc(Cl)cc2)cc1C(=O)O | inconclusive [activator, partial curve] | – |
| COc1cc(/C=C(\C#N)c2nc3ccccc3[nH]2)ccc1O | inconclusive [activator, single point] | – |
| Fc1cccc(NC(=S)NCc2ccccn2)c1 | inconclusive [activator, partial curve] | – |
| CC1=C(/C=C/C(C)=C/C=C/C(C)=C/C(=O)O)C(C)(C)CCC1 | inactive | – |
| O=c1c2sccc2nc(SCc2cc(=O)n3ccccc3n2)n1Cc1ccccn1 | active: 3.98 µM | – |
| O=C(CCn1nnc2ccccc21)N1CCN(c2ccccc2)CC1 | inconclusive [activator, single point] | – |
| Cc1ccc2c(COC(=O)C3=COCCO3)cc(=O)oc2c1 | active: 0.794 µM | – |
| Cc1cc(C(=O)COC(=O)c2n[nH]c3ccccc23)c(C)n1CC1CCCO1 (stereo unspecified) | active: 0.316 µM | – |
| O=C1/C(=C/c2ccc(N3CCCC3)cc2)NC(=S)N1C1CC1 | inconclusive [activator, single point] | – |

| SMILES | Potency | activation, negative = inhibition |
| --- | --- | --- |
| COC(=O)c1ccc(/C=C/c2nc3ccccc3c(=O)[nH]2)cc1 | active: 1.12 µM | – |
| C/C(=C\c1ccc(N)cc1)c1nc2ccccc2[nH]1 | active: 2.24 µM | – |
| COCCCN(C(C)=O)c1nc(-c2ccccc2)cs1 | inconclusive [activator, single point] | – |
| N#Cc1ccccc1Sc1ccccc1C(=O)OCC(N)=O | – | inactive: -2.21% |
| CCn1c(COc2cccc(C)c2)nc2ccccc21 | – | inactive: -3.18% |
| CONC(=O)C1CCN(C(=O)OCc2ccccc2)CC1 | inconclusive [activator, single point] | – |
| O=C(COc1ccc2c3c(c(=O)oc2c1)CCC3)Nc1ccccn1 | active: 5.01 µM | – |
| Cc1cccc(OCCCC(=O)Nc2ccc(N(C)C)cc2)c1 | inconclusive [activator, single point] | – |
| COc1ccc(NC(=O)c2ocnc2C)cc1OC | – | inactive: 5.42% |
| Cc1ccc(NC(=O)CC2SCCNC2=O)cc1Cl (stereo unspecified) | inconclusive [activator, partial curve] | – |
| CCN(CC)C(=O)Nc1cnc2ccccc2c1 | inconclusive [activator, partial curve] | – |
| CCOc1ccc(Cc2n[nH]c(=S)n2N)cc1 | – | inactive: 1.54% |
| C=CCN(C(=O)Nc1ccc2c(c1)nc(C)n2C)c1ccccc1 | inconclusive [activator, single point] | – |
| O=C1C(C=Nc2ccccc2)=C(O)c2ccccc21 | active: 1.58 µM | – |
| Cc1nn(CC(=O)N2c3ccccc3NC(=O)C2(C)C)c(C)c1[N+](=O)[O-] | – | inactive: 0.207% |
| Nc1ccc(C(=O)Nc2nc3ccccc3s2)cc1 | active: 0.398 µM | – |
| COc1ccc(CNC(=O)Nc2cccc(Cl)c2)cc1 | inconclusive [activator, partial curve] | – |
| O=c1c2c(-c3ccc(Cl)cc3)csc2ncn1/N=C/c1cccc([N+](=O)[O-])c1O | – | inactive: -8.51% |
